Results published in PubChem BioAssay AID250 (DTP/NCI, 2004).
Values joined by “and” are separate entries in the source; they are usually repeats but may differ in a detail not shown here. Equal values may be shown once. This continues a long series; more values of the same kind are listed elsewhere. Inconclusive results and toxic doses are left out.

Test system: BDF1 mice, L1210 leukemia sc, survival T/C
Experiment: NCI In Vivo Anticancer Drug Screen. Data for tumor model L1210 Leukemia (subcutaneous) in B6D2F1 (BDF1) mice
Settings: endpoint: median survival time, higher = longer survival
Method: The antitumor activity of compounds was measured in mice bearing transplantable tumors. Survival or tumor size were measured and the results are expressed as the measurement made in the treated group (T) divided by the measurement made in the vehicle treated control group (C). The tumor model used in this assay is L1210 Leukemia (subcutaneous) in B6D2F1 (BDF1) mice

[1] = dose: 65.0 mg/kg/injection, schedule: Q02DX Z (sc), vehicle: saline
[2] = dose: 108.0 mg/kg/injection, schedule: Q## X Z (sc), vehicle: saline
[3] = dose: 180.0 mg/kg/injection, schedule: Q## X Z (sc), vehicle: saline
[4] = dose: 65.0 mg/kg/injection, schedule: Q16DX002 (ip), vehicle: saline

O=C(Nc1ccc(C2=NCCN2)cc1)c1ccc(C(=O)Nc2ccc(C3=NCCN3)cc2)c(Cl)c1
T/C (dose: 14.0 mg/kg/injection, schedule: Q01DX Z (sc), vehicle: saline): 219 % of control and 227 % of control
T/C (dose: 23.0 mg/kg/injection, schedule: Q01DX Z (sc), vehicle: saline): 223 % of control
T/C (dose: 39.0 mg/kg/injection, schedule: Q02DX Z (sc), vehicle: saline): 225 % of control
T/C [1]: 210 % of control
T/C [2]: 210 % of control
T/C [3]: 215 % of control
T/C (dose: 300.0 mg/kg/injection, schedule: Q01DX001 (sc), vehicle: saline): 210 % of control
T/C (dose: 500.0 mg/kg/injection, schedule: Q01DX001 (sc), vehicle: saline): 210 % of control
T/C (dose: 833.0 mg/kg/injection, schedule: Q01DX001 (sc), vehicle: saline): 225 % of control

O=P1(N(CCCl)CCCl)NCCCO1 (centres undefined)
T/C (dose: 23.0 mg/kg/injection, schedule: Q#A X Z (sc), vehicle: saline): 330 % of control
T/C (dose: 30.0 mg/kg/injection, schedule: Q01DX001 (ip), vehicle: saline): 475 % of control
T/C (dose: 39.0 mg/kg/injection, schedule: Q01DX Z (ip), vehicle: saline): 380 % of control
T/C (dose: 39.0 mg/kg/injection, schedule: Q01DX Z (sc), vehicle: other): 250 % of control
T/C (dose: 39.0 mg/kg/injection, schedule: Q08DX003 (ip), vehicle: saline): 72 % of control
T/C (dose: 65.0 mg/kg/injection, schedule: Q01DX Z (ip), vehicle: saline): 245 % of control
T/C (dose: 65.0 mg/kg/injection, schedule: Q01DX Z (oral), vehicle: saline): 310 % of control
T/C [1]: 370 % of control
T/C (dose: 65.0 mg/kg/injection, schedule: Q08DX003 (ip), vehicle: saline): 85 % of control
T/C [4]: 85 % of control
T/C (dose: 65.0 mg/kg/injection, schedule: Q## X Z (sc), vehicle: saline): 295 % of control
T/C (dose: 100.0 mg/kg/injection, schedule: Q01DX009 (sc), vehicle: saline): 247 % of control
T/C (dose: 100.0 mg/kg/injection, schedule: Q07DX003 (sc), vehicle: saline): 266 % of control
T/C (dose: 108.0 mg/kg/injection, schedule: Q02DX Z (sc), vehicle: saline): 260 % of control
T/C (dose: 108.0 mg/kg/injection, schedule: Q07DX Z (sc), vehicle: saline): 286 % of control and 360 % of control
T/C (dose: 108.0 mg/kg/injection, schedule: Q16DX002 (ip), vehicle: saline): 84 % of control
T/C [2]: 335 % of control
T/C (dose: 169.0 mg/kg/injection, schedule: Q07DX003 (sc), vehicle: saline): 250 % of control
T/C (dose: 180.0 mg/kg/injection, schedule: Q07DX Z (sc), vehicle: saline): 400 % of control
T/C (dose: 180.0 mg/kg/injection, schedule: Q16DX002 (ip), vehicle: saline): 84 % of control
T/C [3]: 270 % of control
T/C (dose: 200.0 mg/kg/injection, schedule: Q07DX003 (sc), vehicle: saline): 272 % of control and 277 % of control
T/C (dose: 200.0 mg/kg/injection, schedule: Q07DX004 (sc), vehicle: saline): 277 % of control and 300 % of control
T/C (dose: 264.0 mg/kg/injection, schedule: Q07DX003 (sc), vehicle: saline): 300 % of control and 316 % of control
T/C (dose: 300.0 mg/kg/injection, schedule: Q01DX014 (sc), vehicle: saline): 274 % of control
T/C (dose: 300.0 mg/kg/injection, schedule: Q07DX Z (sc), vehicle: saline): 295 % of control
T/C (dose: 400.0 mg/kg/injection, schedule: Q01DX001 (ip), vehicle: saline): 64 % of control
T/C (dose: 500.0 mg/kg/injection, schedule: Q01DX001 (ip), vehicle: saline): 61 % of control
T/C (dose: 500.0 mg/kg/injection, schedule: Q01DX014 (sc), vehicle: saline): 69 % of control
T/C (dose: 600.0 mg/kg/injection, schedule: Q01DX001 (ip), vehicle: saline): 61 % of control
T/C (dose: 600.0 mg/kg/injection, schedule: Q01DX001 (sc), vehicle: saline): 67 % of control
T/C (dose: 625.0 mg/kg/injection, schedule: Q01DX001 (sc), vehicle: saline): 59 % of control

O=NN(CCCl)C(=O)NCCCl
T/C (dose: 5.0 mg/kg/injection, schedule: Q16DX002 (ip), vehicle: saline): 69 % of control
T/C (dose: 14.0 mg/kg/injection, schedule: Q01DX001 (ip), vehicle: saline): 800 % of control
T/C (dose: 14.0 mg/kg/injection, schedule: Q07DX Z (sc), vehicle: saline): 663 % of control and 750 % of control
T/C (dose: 23.0 mg/kg/injection, schedule: Q01DX001 (oral), vehicle: saline): 661 % of control
T/C (dose: 39.0 mg/kg/injection, schedule: Q01DX001 (oral), vehicle: saline): 857 % of control
T/C (dose: 39.0 mg/kg/injection, schedule: Q16DX002 (ip), vehicle: saline): 77 % of control
T/C [4]: 69 % of control

N=c1ccn2c(n1)OC1C(O)C(CO)OC12 (centres undefined)
T/C (dose: 400.0 mg/kg/injection, schedule: Q## X009 (sc), vehicle: water): 305 % of control
T/C (dose: 800.0 mg/kg/injection, schedule: Q01DX009 (sc), vehicle: water): 77 % of control

S=c1nc[nH]c2nc[nH]c12
T/C (dose: 8.4 mg/kg/injection, schedule: Q## X Z (sc), vehicle: other): 168 % of control
T/C (dose: 14.0 mg/kg/injection, schedule: Q## X Z (sc), vehicle: other): 168 % of control
T/C (dose: 23.0 mg/kg/injection, schedule: Q#A X Z (sc), vehicle: other): 163 % of control
T/C (dose: 39.0 mg/kg/injection, schedule: Q#A X Z (sc), vehicle: other): 157 % of control
T/C (dose: 40.0 mg/kg/injection, schedule: Q01DX009 (ip), vehicle: other): 168 % of control
T/C (dose: 64.8 mg/kg/injection, schedule: Q01DX Z (sc), vehicle: other): 172 % of control
T/C (dose: 65.0 mg/kg/injection, schedule: Q01DX Z (ip), vehicle: other): 170 % of control
T/C (dose: 65.0 mg/kg/injection, schedule: Q01DX Z (oral), vehicle: other): 175 % of control
T/C (dose: 65.0 mg/kg/injection, schedule: Q#A X Z (sc), vehicle: other): 173 % of control
T/C (dose: 78.0 mg/kg/injection, schedule: Q01DX Z (sc), vehicle: other): 158 % of control
T/C (dose: 90.0 mg/kg/injection, schedule: Q01DX009 (ip), vehicle: saline): 166 % of control and 168 % of control (2×)
T/C (dose: 108.0 mg/kg/injection, schedule: Q01DX Z (oral), vehicle: other): 165 % of control
T/C (dose: 108.0 mg/kg/injection, schedule: Q02DX Z (sc), vehicle: other): 177 % of control and 189 % of control
T/C (dose: 108.0 mg/kg/injection, schedule: Q#A X Z (sc), vehicle: other): 157 % of control
T/C (dose: 120.0 mg/kg/injection, schedule: Q01DX009 (ip), vehicle: saline): 161 % of control
T/C (dose: 130.0 mg/kg/injection, schedule: Q01DX Z (sc), vehicle: other): 165 % of control
T/C (dose: 180.0 mg/kg/injection, schedule: Q02DX Z (sc), vehicle: other): 166 % of control and 168 % of control
T/C (dose: 240.0 mg/kg/injection, schedule: Q01DX009 (ip), vehicle: saline): 73 % of control
T/C (dose: 300.0 mg/kg/injection, schedule: Q02DX Z (sc), vehicle: other): 166 % of control
